Test results as given in PMC9911399, “Two distinct binding modes provide the RNA-binding protein RbFox with extraordinary sequence specificity”.
Where a chain is given by its changes, count along the chain named. This is one part of the list.

T1: RBFOX1 RRM (Homo sapiens, UniProt Q9NWB1 109-208)
T1 sequence: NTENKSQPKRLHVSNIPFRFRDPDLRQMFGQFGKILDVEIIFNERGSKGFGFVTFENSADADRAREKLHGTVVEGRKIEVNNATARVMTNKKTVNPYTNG

B1: AGUGUGG (DNA:RNA)
RNA: GGGAGACCGGAAUUCAGAUUGUCCAGUGUGGUUAAAUCCCGUCGUAGCCACCA
DNA 1: CAATCTGAATTCCGGTCTCCC
DNA 2: TGGTGGCTACGACGGGATT
B2: UGCAAUU (DNA:RNA)
RNA: B1 RNA with A25U, U27C, G28A, U29A, G30U, G31U
DNA 1: CAATCTGAATTCCGGTCTCCC
DNA 2: TGGTGGCTACGACGGGATT
B3: GUUGGUG (DNA:RNA)
RNA: B1 RNA with A25G, G26U, U29G, G30U
DNA 1: CAATCTGAATTCCGGTCTCCC
DNA 2: TGGTGGCTACGACGGGATT
B4: UCCGUCC (DNA:RNA)
RNA: B1 RNA with A25U, G26C, U27C, G30C, G31C
DNA 1: CAATCTGAATTCCGGTCTCCC
DNA 2: TGGTGGCTACGACGGGATT
B5: UAUAACA (DNA:RNA)
RNA: B1 RNA with A25U, G26A, G28A, U29A, G30C, G31A
DNA 1: CAATCTGAATTCCGGTCTCCC
DNA 2: TGGTGGCTACGACGGGATT
B6: AUAACAC (DNA:RNA)
RNA: B1 RNA with G26U, U27A, G28A, U29C, G30A, G31C
DNA 1: CAATCTGAATTCCGGTCTCCC
DNA 2: TGGTGGCTACGACGGGATT
B7: CAUAAUU (DNA:RNA)
RNA: B1 RNA with A25C, G26A, G28A, U29A, G30U, G31U
DNA 1: CAATCTGAATTCCGGTCTCCC
DNA 2: TGGTGGCTACGACGGGATT
B8: AGCCUUC (DNA:RNA)
RNA: B1 RNA with U27C, G28C, G30U, G31C
DNA 1: CAATCTGAATTCCGGTCTCCC
DNA 2: TGGTGGCTACGACGGGATT
B9: ACGCACA (DNA:RNA)
RNA: B1 RNA with G26C, U27G, G28C, U29A, G30C, G31A
DNA 1: CAATCTGAATTCCGGTCTCCC
DNA 2: TGGTGGCTACGACGGGATT
B10: UCAUUCG (DNA:RNA)
RNA: B1 RNA with A25U, G26C, U27A, G28U, G30C
DNA 1: CAATCTGAATTCCGGTCTCCC
DNA 2: TGGTGGCTACGACGGGATT
B11: CUCAUAG (DNA:RNA)
RNA: B1 RNA with A25C, G26U, U27C, G28A, G30A
DNA 1: CAATCTGAATTCCGGTCTCCC
DNA 2: TGGTGGCTACGACGGGATT
B12: AUCGAUC (DNA:RNA)
RNA: B1 RNA with G26U, U27C, U29A, G30U, G31C
DNA 1: CAATCTGAATTCCGGTCTCCC
DNA 2: TGGTGGCTACGACGGGATT
B13: AGUAGAC (DNA:RNA)
RNA: B1 RNA with G28A, U29G, G30A, G31C
DNA 1: CAATCTGAATTCCGGTCTCCC
DNA 2: TGGTGGCTACGACGGGATT
B14: AUUCCAU (DNA:RNA)
RNA: B1 RNA with G26U, G28C, U29C, G30A, G31U
DNA 1: CAATCTGAATTCCGGTCTCCC
DNA 2: TGGTGGCTACGACGGGATT
B15: GACGCAG (DNA:RNA)
RNA: B1 RNA with A25G, G26A, U27C, U29C, G30A
DNA 1: CAATCTGAATTCCGGTCTCCC
DNA 2: TGGTGGCTACGACGGGATT
B16: GGAGCUA (DNA:RNA)
RNA: B1 RNA with A25G, U27A, U29C, G30U, G31A
DNA 1: CAATCTGAATTCCGGTCTCCC
DNA 2: TGGTGGCTACGACGGGATT
B17: GAACAUG (DNA:RNA)
RNA: B1 RNA with A25G, G26A, U27A, G28C, U29A, G30U
DNA 1: CAATCTGAATTCCGGTCTCCC
DNA 2: TGGTGGCTACGACGGGATT
B18: ACGAGCA (DNA:RNA)
RNA: B1 RNA with G26C, U27G, G28A, U29G, G30C, G31A
DNA 1: CAATCTGAATTCCGGTCTCCC
DNA 2: TGGTGGCTACGACGGGATT
B19: CCGACAC (DNA:RNA)
RNA: GGGAGACCGGAAUUCAGAUUGUCCCCGACACUUAAAUCCCGUCGUAGCCACCA
DNA 1: CAATCTGAATTCCGGTCTCCC
DNA 2: TGGTGGCTACGACGGGATT
B20: UAGAAGG (DNA:RNA)
RNA: B1 RNA with A25U, G26A, U27G, G28A, U29A
DNA 1: CAATCTGAATTCCGGTCTCCC
DNA 2: TGGTGGCTACGACGGGATT
B21: AAAACGU (DNA:RNA)
RNA: B1 RNA with G26A, U27A, G28A, U29C, G31U
DNA 1: CAATCTGAATTCCGGTCTCCC
DNA 2: TGGTGGCTACGACGGGATT
B22: CAGUUCG (DNA:RNA)
RNA: B1 RNA with A25C, G26A, U27G, G28U, G30C
DNA 1: CAATCTGAATTCCGGTCTCCC
DNA 2: TGGTGGCTACGACGGGATT
B23: CCUUGCG (DNA:RNA)
RNA: B1 RNA with A25C, G26C, G28U, U29G, G30C
DNA 1: CAATCTGAATTCCGGTCTCCC
DNA 2: TGGTGGCTACGACGGGATT
B24: GCUAUCG (DNA:RNA)
RNA: B1 RNA with A25G, G26C, G28A, G30C
DNA 1: CAATCTGAATTCCGGTCTCCC
DNA 2: TGGTGGCTACGACGGGATT
B25: ACAAGGG (DNA:RNA)
RNA: B1 RNA with G26C, U27A, G28A, U29G
DNA 1: CAATCTGAATTCCGGTCTCCC
DNA 2: TGGTGGCTACGACGGGATT
B26: AGGGCCC (DNA:RNA)
RNA: B1 RNA with U27G, U29C, G30C, G31C
DNA 1: CAATCTGAATTCCGGTCTCCC
DNA 2: TGGTGGCTACGACGGGATT
B27: UAGUUAA (DNA:RNA)
RNA: B19 RNA with C25U, C26A, A28U, C29U, C31A
DNA 1: CAATCTGAATTCCGGTCTCCC
DNA 2: TGGTGGCTACGACGGGATT
B28: UUAACGG (DNA:RNA)
RNA: B1 RNA with A25U, G26U, U27A, G28A, U29C
DNA 1: CAATCTGAATTCCGGTCTCCC
DNA 2: TGGTGGCTACGACGGGATT
B29: CCGAUCU (DNA:RNA)
RNA: B19 RNA with C29U, A30C, C31U
DNA 1: CAATCTGAATTCCGGTCTCCC
DNA 2: TGGTGGCTACGACGGGATT
B30: CUCAUCA (DNA:RNA)
RNA: B19 RNA with C26U, G27C, C29U, A30C, C31A
DNA 1: CAATCTGAATTCCGGTCTCCC
DNA 2: TGGTGGCTACGACGGGATT
B31: CGCGAAA (DNA:RNA)
RNA: B1 RNA with A25C, U27C, U29A, G30A, G31A
DNA 1: CAATCTGAATTCCGGTCTCCC
DNA 2: TGGTGGCTACGACGGGATT

target: T1, RBFOX1 RRM; experiment: EMSA; HiTS-Eq, 1 nM pool, 10 min; buffer printed only for the single-RNA assays: 10 mM Tris pH 7.5, 150 mM NaCl, 3.4 mM EDTA, 0.001% NP-40, 30 C; details: tags: His6 N-terminal (pET28a); label: 5' 32P
Method in brief: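 A pool of RNA with 7 randomized nucleotides, 5′-radiolabelled and with DNA-annealed flanks, was equilibrated at 1 nM for 10 min in 50 µL with purified RbFox RRM, wild type or mutant, across increasing protein concentrations. Free RNA was separated by 8% native PAGE, excised, reverse-transcribed, barcoded by PCR and sequenced. Relative association constants were obtained from read-count changes of each RNA species versus the control reaction and normalised to the cognate motif.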

Binder	binding signal
B1	0.0145 KA relative to UGCAUGU
B2	0.00982 KA relative to UGCAUGU
B3	0.0258 KA relative to UGCAUGU
B4	0.00497 KA relative to UGCAUGU
B5	0.00681 KA relative to UGCAUGU
B6	0.00131 KA relative to UGCAUGU
B7	0.0023 KA relative to UGCAUGU
B8	0.00778 KA relative to UGCAUGU
B9	0.00609 KA relative to UGCAUGU
B10	0.00905 KA relative to UGCAUGU
B11	0.00247 KA relative to UGCAUGU
B12	0.00475 KA relative to UGCAUGU
B13	0.00654 KA relative to UGCAUGU
B14	0.000205 KA relative to UGCAUGU
B15	0.0181 KA relative to UGCAUGU
B16	0.0106 KA relative to UGCAUGU

Binder	binding signal
B17	0.00915 KA relative to UGCAUGU
B18	0.0135 KA relative to UGCAUGU
B19	0.00368 KA relative to UGCAUGU
B20	0.0079 KA relative to UGCAUGU
B21	0.000755 KA relative to UGCAUGU
B22	0.0101 KA relative to UGCAUGU
B23	0.0117 KA relative to UGCAUGU
B24	0.0164 KA relative to UGCAUGU
B25	0.00436 KA relative to UGCAUGU
B26	0.0184 KA relative to UGCAUGU
B27	0.00724 KA relative to UGCAUGU
B28	0.00502 KA relative to UGCAUGU
B29	0.00633 KA relative to UGCAUGU
B30	0.00209 KA relative to UGCAUGU
B31	0.00934 KA relative to UGCAUGU
